Several values for one entry are separate records, joined by “and”; a condition that tells them apart may be missing. Equal values may be shown once. The inconclusive results got no clear call from the source; some entries with a clear call stand among them for comparison. A potency beside an inconclusive call is a rough fit, not a confirmed value. A structure can be active in one record and inactive in another. Activity calls are given as the source filed them. Unless noted, calls follow the shape of the dose curve; as a rule, active = well fitted cell-killing curve with a large enough effect in the repeat runs; inconclusive = weak or mixed curves, or effect the other way; inactive = no such curve, though single readings can be large or run the other way.
Key:
[1] = target: Bile acid receptor (Homo sapiens) (UniProt Q96RI1); experiment: qHTS assay to identify small molecule agonists of the farnesoid-X-receptor (FXR) signaling pathway (AID 743220; active = well fitted activation curve with a large enough effect in the signal ratio in the repeat runs, not every such curve was filed as active; inconclusive = weak or mixed curves, or effect the other way; the % refers to the signal ratio; as to activation: % is scaled to controls: 0 for no effect and ±100 for the full control effect); details: HEK293T FXR-UAS-bla, beta-lactamase FRET ratio, 16 h; activation: at 62.6 µM (top of the series) unless noted
Chain of UniProt Q96RI1 (Q96RI1 whole entry, looked up): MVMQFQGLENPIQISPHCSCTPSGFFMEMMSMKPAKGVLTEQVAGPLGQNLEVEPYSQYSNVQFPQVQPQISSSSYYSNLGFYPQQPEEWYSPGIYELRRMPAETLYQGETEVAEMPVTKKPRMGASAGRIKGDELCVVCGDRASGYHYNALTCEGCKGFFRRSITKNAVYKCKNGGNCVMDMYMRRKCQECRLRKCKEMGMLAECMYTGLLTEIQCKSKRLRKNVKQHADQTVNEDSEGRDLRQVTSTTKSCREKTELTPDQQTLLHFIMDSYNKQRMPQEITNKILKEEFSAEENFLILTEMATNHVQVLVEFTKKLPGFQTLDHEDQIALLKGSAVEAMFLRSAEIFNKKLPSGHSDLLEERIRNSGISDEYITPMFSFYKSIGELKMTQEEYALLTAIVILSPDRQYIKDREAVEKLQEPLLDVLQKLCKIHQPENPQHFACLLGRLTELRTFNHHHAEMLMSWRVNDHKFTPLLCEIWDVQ
How it was run: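 FXR-UAS-bla HEK 293T cells carrying a UAS-driven beta-lactamase reporter were plated for 5 h at 37C/5% CO2, then exposed to DMSO-dissolved Tox21 10K compounds for 16 h at 37C. A LiveBLAzer B/G FRET substrate was loaded for 2 h at room temperature before fluorescence reading.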

[2] = qHTS assay to identify small molecule agonists of the vitamin D receptor (VDR) signaling pathway - cell viability counter screen (AID 743224); also: nearly all actives have a fitted effect of over 50% in size
How it was run: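 In parallel with the bla FRET readout, cytotoxicity toward VDR-bla cells after 16 h compound exposure was assessed by CellTiter-Glo, with luminescence recorded after a 30 min room-temperature incubation.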

[3] = qHTS assay to identify small molecule antagonists of the vitamin D receptor (VDR) signaling pathway - cell viability counter screen (AID 743225); details: VDR-bla HEK293T viability, CellTiter-Glo luminescence, 16 h; viability change, negative = cytotoxic: at 61 µM (top of the series); also: nearly all actives have a fitted effect of over 50% in size
How it was run: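 Read-out: CellTiter-Glo luminescence measured 30 min after reagent addition at room temperature. Cells were VDR-bla HEK 293T exposed 16 h at 37C, 5% CO2, to compound with 3 nM final calcitriol agonist.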

[4] = qHTS assay to identify small molecule agonists of the endoplasmic reticulum stress response signaling pathway (AID 1159516; active = well fitted activation curve with a large enough effect in the signal ratio in the repeat runs, not every such curve was filed as active; inconclusive = weak or mixed curves, or effect the other way; the % refers to the signal ratio; as to activation: % is scaled to controls: 0 for no effect and ±100 for the full control effect); details: ESRE-bla HeLa, ER stress beta-lactamase reporter, 5 h; for Potency: activation: at 61 µM (top of the series) unless noted
How it was run: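 Beta-lactamase expression from the ER stress response element in HeLa reporter cells is quantified with the LiveBLAzer B/G FRET substrate, read at 405 nm excitation after 2 hr at room temperature, following 5 hr compound treatment at 37 C.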

[5] = qHTS assay to identify small molecule agonists of the farnesoid-X-receptor (FXR) signaling pathway - cell viability counter screen (AID 743218); details: FXR-bla HEK293T viability, CellTiter-Glo luminescence, 16 h; viability change, negative = cytotoxic: at 62.6 µM (top of the series) unless noted; also: nearly all actives have a fitted effect of over 45% in size; as to viability change, negative = cytotoxic: % is scaled to controls: 0 for no effect and ±100 for the full control effect
How it was run: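 Readout: CellTiter-Glo luminescence, 30 min RT, multiplexed after the FXR-bla FRET reading. HEK 293T FXR-UAS-bla cells received compound 5 h post-plating and were incubated 16 h at 37 C.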

[6] = qHTS assay to identify small molecule antagonists of the farnesoid-X-receptor (FXR) signaling pathway - cell viability counter screen (AID 743221; active = well fitted cell-killing curve with a large enough effect in the repeat runs, not every such curve was filed as active; inconclusive = weak or mixed curves, or effect the other way; inactive = no such curve, though single readings can be large or run the other way; also: nearly all actives have a fitted effect of over 50% in size); details: FXR-bla HEK293T viability, CellTiter-Glo luminescence, 16 h; activity change, negative = cytotoxicity: at 62.6 µM (top of the series) unless noted
How it was run: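 Luminescence from CellTiter-Glo measures cytotoxicity in GeneBLAzer FXR-UAS-bla HEK 293T cells. Cells were exposed to compounds with 50 uM chenodeoxycholic acid (final) for 16 h at 37 C, in wells also used for the reporter readout.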

[7] = target: Vitamin D3 receptor (Homo sapiens) (UniProt P11473); experiment: qHTS assay to identify small molecule agonists of the vitamin D receptor (VDR) signaling pathway (AID 743222; calls by dose curve); details: HEK293T VDR-UAS-bla, beta-lactamase FRET ratio, 16 h; activation: at 63.5 µM (top of the series) unless noted
Chain of UniProt P11473 (P11473 whole entry, looked up): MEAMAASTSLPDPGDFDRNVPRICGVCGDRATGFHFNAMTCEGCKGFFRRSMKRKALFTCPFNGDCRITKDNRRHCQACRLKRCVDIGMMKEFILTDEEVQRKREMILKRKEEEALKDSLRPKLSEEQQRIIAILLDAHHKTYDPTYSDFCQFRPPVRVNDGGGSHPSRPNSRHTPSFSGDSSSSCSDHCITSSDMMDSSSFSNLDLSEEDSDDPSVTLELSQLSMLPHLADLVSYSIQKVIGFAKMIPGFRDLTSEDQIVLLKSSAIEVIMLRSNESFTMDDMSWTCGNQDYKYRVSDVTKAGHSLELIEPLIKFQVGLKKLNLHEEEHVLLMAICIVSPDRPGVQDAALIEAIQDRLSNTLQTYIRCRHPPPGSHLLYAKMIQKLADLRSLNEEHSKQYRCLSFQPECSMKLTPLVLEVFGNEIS
How it was run: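 Following 4 h attachment at 37C, VDR-bla cells (2,000 per well) received DMSO-dissolved compounds or controls. After 16 h incubation, LiveBLAzer B/G FRET substrate was added and fluorescence read 2 h later at room temperature.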

[8] = target: Vitamin D3 receptor (Homo sapiens) (UniProt P11473); experiment: qHTS assay to identify small molecule antagonists of the vitamin D receptor (VDR) signaling pathway (AID 743223; active = well fitted inhibition curve with a large enough effect in the signal ratio in the repeat runs, not every such curve was filed as active; inconclusive = weak or mixed curves, or effect the other way; inactive = no such curve, though single readings can be large or run the other way; the % refers to the signal ratio; as to activity change, negative = inhibition: % is scaled to controls: 0 for no effect and ±100 for the full control effect); details: VDR-UAS-bla HEK293T, beta-lactamase FRET ratio, 16 h; activity change, negative = inhibition: at 61 µM (top of the series) unless noted
How it was run: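 Antagonist mode uses 1alpha,25-dihydroxyvitamin D3 at 3 nM final as stimulus. VDR-bla cells receive compounds in DMSO, incubate 16 h at 37C, then a beta-lactamase FRET substrate for 2 h at room temperature before fluorescence measurement.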

[9] = qHTS assay to identify small molecule agonists of the NFkB signaling pathway (AID 1159509; active = well fitted curve in the direction sought with a large enough effect in the signal ratio in the repeat runs, not every such curve was filed as active; inconclusive = weak or mixed curves, or a change in a side signal; inactive = no such curve, though single readings can be large or run the other way; the % refers to the signal ratio); details: NFkB-bla ME-180 cells, beta-lactamase FRET ratio, 5 h; activation: at 61 µM (top of the series) unless noted
How it was run: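 Agonist activity was read as beta-lactamase-driven FRET change (460 and 530 nm emission, 405 nm excitation) following 1.5 hr substrate loading at room temperature. Beforehand, ME-180 NFkB-bla reporter cells were treated with compounds for 5 hr at 37 C.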

[10] = qHTS assay to identify small molecule agonists of the NFkB signaling pathway - cell viability counter screen (AID 1159515; calls by dose curve; also: nearly all actives have a fitted effect of over 55% in size)
How it was run: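 Plate 2,000 NFkB-bla ME-180 cells/well; incubate overnight. Add compounds, 5 hr at 37 C. Add FRET substrate, 1.5 hr RT. Add CellTiter-Glo, 30 min RT; read luminescence.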
Potency is read from the fitted curve at half-maximal effect; tags tell the direction and shape of the fitted curve or compound fluorescence and quenching.

Row | SMILES | Potency [1] | activation [1] | Potency [2] | Potency [3] | activation ([4]; at 61 µM (top of the series)) | Potency [5] | Potency [6] | Potency [7] | Potency [8] | Potency [9] | Potency [10] | Potency [4] | activity change, negative = inhibition [8] | activation [7]
1 | CN(C)[C@@H]1C(=O)C(C(N)=O)=C(O)[C@@]2(O)C(=O)C3=C(O)c4c(O)cccc4[C@@](C)(O)[C@H]3C[C@@H]12 | inconclusive: 55.1 µM [rising, partial curve, poor fit] | inconclusive: 12% | – | – | – | – | – | – | – | – | – | – | – | –
2 | ClC1C(Cl)C(Cl)C(Cl)C(Cl)C1Cl (stereo unspecified) | – | – | inconclusive: 62.9 µM [cytotoxic] | inconclusive: 50 µM [cytotoxic, partial curve, poor fit] | – | – | – | – | – | – | – | – | – | –
3 | Cc1ccc(N)c(N)c1 | – | – | – | inconclusive: 0.0012 µM [rising, full curve, poor fit] | inactive: -2.87% | – | – | – | – | – | – | – | – | –
4 | Cc1nnc2n1-c1sc(CCc3ccc(CC(C)C)cc3)cc1C(c1ccccc1Cl)=NC2C (stereo unspecified) | inconclusive: 33.5 µM [falling, single point] | – | inconclusive: 33.5 µM [cytotoxic, single point] | active: 23.9 µM | – | active: 33.5 µM | inconclusive: 33.5 µM [falling, single point] | inconclusive: 16.8 µM [rising, partial curve] | inconclusive: 23.9 µM [fluorescent, partial curve] | inconclusive: 26.8 µM [single point] | inconclusive: 26.8 µM [cytotoxic, single point] | inconclusive: 30.1 µM [cytotoxic] | – | –
5 | C=C(C)C(=O)[O][Sn]([CH2]CCC)([CH2]CCC)[CH2]CCC | inconclusive: 13.8 µM [falling, full curve] | – | active: 0.49 µM | active: 1.95 µM | – | active: 0.616 µM | – | – | inconclusive: 0.871 µM | inconclusive: 0.49 µM [falling, full curve] | active: 0.436 µM | inconclusive: 17.4 µM [cytotoxic, full curve] | – | –
6 | CC(=O)O[C@H]1CC[C@@]2(C)C(=CC[C@@H]3[C@@H]2CC[C@]2(C)C(=O)CC[C@@H]32)C1 | inconclusive: 27.5 µM [rising, partial curve, poor fit] | – | – | – | – | inactive | – | inconclusive: 54.9 µM [fluorescent, single point] | – | inconclusive: 61.7 µM [falling, single point] | inconclusive: 54.9 µM [cytotoxic, single point] | inactive | inconclusive: -3.99% | –
7 | CCC[CH2][Sn]([Cl])([CH2]CCC)[CH2]CCC | inconclusive: 13.8 µM [falling, full curve] and inconclusive: 19.5 µM [falling, full curve] | – | active: 437 nM and active: 1.23 µM | active: 618 nM and active: 3.47 µM | – | active: 873 nM and active: 1.23 µM | active: 1.95 µM and active: 2.45 µM | – | – | inconclusive: 1.38 µM [falling, full curve] and inconclusive: 1.55 µM [falling, full curve] | active: 1.1 µM and active: 1.95 µM | inconclusive: 11 µM [falling, full curve] and inconclusive: 15.5 µM [falling, full curve] | – | –
8 | CC(=O)[O][Pb]([c]1ccccc1)([c]1ccccc1)[c]1ccccc1 | – | inconclusive: 30.6% | active: 1.55 µM | active: 0.977 µM | – | active: 0.549 µM | active: 1.1 µM | inconclusive: 0.347 µM [rising, full curve] | – | inconclusive: 7.76 µM [falling, partial curve] | active: 0.871 µM | inconclusive: 43.6 µM | – | –
9 | Fc1ccc(C(OCCN2CCN(CCCc3ccccc3)CC2)c2ccc(F)cc2)cc1 | inconclusive: 33.5 µM | – | – | active: 21.3 µM | – | inconclusive: 37.6 µM [cytotoxic, partial curve, poor fit] | inconclusive: 33.5 µM [falling, single point] | inconclusive: 23.7 µM [rising, partial curve] | inconclusive: 26.8 µM [single point] | inconclusive: 21.3 µM [falling, partial curve] | active: 23.9 µM | inconclusive: 23.9 µM [cytotoxic, partial curve] | – | –
10 | O=[N+]([O-])/C=C/c1ccccc1 | inconclusive: 28 µM [rising, partial curve] | – | inconclusive: 14 µM [cytotoxic, full curve] and active: 49 µM | active: 49.8 µM | – | active: 19.8 µM and active: 15.5 µM | active: 19.8 µM and active: 38.9 µM | inconclusive: 19.8 µM | inconclusive: 49.8 µM [rising, partial curve] | inconclusive: 44.4 µM [falling, partial curve] and inconclusive: 54.9 µM [falling, partial curve] | active: 44.4 µM and active: 54.9 µM | inconclusive: 7.89 µM and inconclusive: 8.71 µM | – | –
11 | O=CC(Br)(Br)Br | inconclusive: 21.8 µM [rising, full curve] | – | – | active: 48.8 µM | – | active: 13.8 µM | – | inconclusive: 34.6 µM [rising, partial curve, poor fit] | – | inconclusive: 21.8 µM [falling, partial curve] | inconclusive: 54.8 µM [cytotoxic, single point] | inconclusive: 54.8 µM [single point] | – | –
12 | Oc1ccc(C2(c3ccc(O)cc3)c3ccccc3-c3ccccc32)cc1 | inconclusive: 61.6 µM [falling, single point] | – | inconclusive: 21.9 µM [cytotoxic] | inconclusive: 17.4 µM [cytotoxic, single point] | – | active: 54.9 µM | inconclusive: 61.6 µM [falling, single point] | – | – | inconclusive: 54.9 µM [single point] | active: 54.9 µM | inconclusive: 54.9 µM [single point] | – | –
13 | O=[N+]([O-])c1cc(C(F)(F)F)c(Cl)c([N+](=O)[O-])c1Nc1ncc(C(F)(F)F)cc1Cl | inconclusive: 43.6 µM [cytotoxic] | – | – | active: 6.92 µM | – | active: 15.5 µM | – | – | – | inconclusive: 9.77 µM [falling, partial curve] | active: 11 µM | inconclusive: 27.5 µM [cytotoxic, partial curve] | – | inconclusive: -0.238%
14 | C[C@H]1CC[C@@H]2[C@@H](C)[C@H]3[C@H](C[C@H]4[C@@H]5CC=C6CC(O[C@@H]7O[C@H](CO)[C@H](O)[C@H](O[C@@H]8O[C@H](CO)[C@@H](O)[C@H](O)[C@H]8O)[C@H]7O[C@H]7O[C@@H](C)[C@H](O)[C@@H](O)[C@H]7O)CC[C@]6(C)[C@H]5CC[C@]34C)N2C1 (stereo partly specified) | inconclusive: 22.6 µM [falling, single point] | – | – | – | – | active: 8.02 µM | active: 14.3 µM | – | – | inconclusive: 56.7 µM [falling, partial curve] | active: 56.7 µM | inconclusive: 56.7 µM [cytotoxic] | – | –
15 | C=CCC1=C(C)C(OC(=O)C2C(C=C(C)C)C2(C)C)CC1=O (stereo unspecified) | inconclusive: 58.3 µM | – | active: 18.4 µM | inconclusive: 5.83 µM [cytotoxic, full curve, poor fit] | – | active: 51.9 µM | active: 46.3 µM | inconclusive: 26 µM | inconclusive: 0.0368 µM [fluorescent, full curve, poor fit] | inconclusive: 0.174 µM [falling, full curve, poor fit] | active: 58.3 µM | inconclusive: 51.9 µM [cytotoxic, partial curve] | – | –
16 | CCC[CH2][Sn]([CH2]CCC)([CH2]CCC)[O][Sn]([CH2]CCC)([CH2]CCC)[CH2]CCC | inconclusive: 0.537 µM [rising, full curve, poor fit] | – | active: 0.603 µM | active: 0.852 µM | – | active: 0.479 µM | active: 1.2 µM | – | inconclusive: 0.852 µM [rising, full curve] | inconclusive: 0.24 µM [falling, full curve] | active: 0.24 µM | inconclusive: 0.269 µM | – | inconclusive: -6.7% [at 6.01 µM]
17 | [F][Sn]([c]1ccccc1)([c]1ccccc1)[c]1ccccc1 | inconclusive: 19.5 µM [falling, full curve] | – | – | active: 0.692 µM | – | active: 0.977 µM | active: 1.55 µM | – | – | inconclusive: 9.77 µM [falling, full curve] | active: 7.76 µM | inconclusive: 24.5 µM [falling, full curve, poor fit] | – | –
18 | CCC[CH2][Sn]([CH2]CCC)([CH2]CCC)[CH2]CCC | inconclusive: 34.7 µM [partial curve, poor fit] | – | – | active: 49 µM | – | active: 49 µM | inconclusive: 61.6 µM [falling, single point] | – | inconclusive: 54.9 µM [single point] | inconclusive: 24.5 µM | active: 30.9 µM | inconclusive: 0.155 µM [rising, full curve, poor fit] | – | inconclusive: -19.7%

— PubChem BioAssay (Tox21)
